Measurements as given in the RNAGym collection of RNA variant scans (doi:10.7554/elife.90254).
The source gives no read counts; variants with many changes may rest on few reads.

B1: LINE1-mini (parent)
chain: GGCAGAGCUCAACACAGCGUGGCAAAGUGGCUGUGGCUAGACUGCC

Variants of: B1
Assay: self-cleavage, relative activity (ratio to wild type); higher = more cleavage; in vitro, sequencing; the parent is a self-cleaving ribozyme

Row | Variant | self-cleavage
1 | G17U A39C G40U | 0.15
2 | G17C U32G C37U | 0.02
3 | C18A G22A G40A | 0.08
4 | G17U C18A A39G G44C | 0.01
5 | C18A G21A G30U C37U C46U | 0.07
6 | G17U U20C U38C | 0.07
7 | G17U A26U G40U | 0.01
8 | C18A A26U C31U U34A | 0.02
9 | C18A G19C U20G A26C G36A | 0.06
10 | G17C G22C G35C G40C | 0.01
11 | C18A G19C G30U U34C | 0.04
12 | G17C G22U C31A | 0.77
13 | G17U A26U G27A U28A C45G | 0.3
14 | G17U U38A C45G | 0.03
15 | G17C G29A G36U C37U | 0.05
16 | C18A G21U A24U | 1.77
17 | G17U C23G U28C | 0.36
18 | C18A G22A G27U U34G G44U | 0.02
19 | G17C G21A A25C C31G U34A | 0.04
20 | C18A C23U C42U | 0.14
21 | C18A G21U G29C C45U C46A | 0.14
22 | G17C G30A C31A | 0.1
23 | G17U C18G G36A | 0.03
24 | G17U G19U C46G | 0.11

Row | Variant | self-cleavage
25 | C18A C23G G27A | 0.19
26 | C18A C23A G33A C42A U43G | 0.11
27 | G17U C18A G33A | 0.08
28 | G17U G19U G27C | 0.21
29 | G17U G33C G40A G44C | 0.04
30 | G17U G33A G36C A41U | 0.2
31 | G17C G27U G35A | 0.08
32 | C18A G19U C42G | 0.01
33 | G17U G35U C45G | 0.03
34 | C18A G21U A41G | 0.25
35 | G17U G21U A25U | 0.13
36 | G17U G22A G40A C45A | 0.1
37 | G17U G29C G36C C42U C46A | 0.02
38 | G17U A26C C31U G36C C42U | 0.02
39 | G17C U34G U38G A39C | 0.12
40 | C18A A25U A26G | 0.17
41 | C18A G22A A24C | 2.16
42 | C18A A26G U32C A41G | 0
43 | G17C U28C C46G | 0.05
44 | C18A G19U A24U G27C U43G | 0.08
45 | G17C G19C A25C | 0.55
46 | G17C G29C C37A G44C | 0.06
47 | G17U C18A U43C C46G | 0.06
48 | C18A C42G C46U | 0.03

Row | Variant | self-cleavage
49 | C18A A24C A26U | 0.1
50 | C18A A25G C37U | 0.03
51 | G17U G19C G27A U28A | 1.53
52 | G17C U20C C23A A24U | 1.31
53 | C18A G21U U32C C45G | 0.02
54 | C18A G19C A25U G36U | 0.06
55 | G17U C18A C45A | 0
56 | G17U C18A C45G | 0.06
57 | C18A C37U G40A | 0.01
58 | C18A A26C G33C G36A | 0
59 | C18A A25C U34G | 0.03
60 | G17U G27A C31A | 0.33
61 | G17C U20C A39C | 0.02
62 | G17U A24G A25C G30U A39G | 0.08
63 | C18A A26U U28G | 0.45
64 | G17U G35A A39U | 0.02
65 | G17C G29U C46A | 0.32
66 | G17U G33A C37U | 0.04
67 | C18A C37G C46G | 0.08
68 | C18A G19A G29A G33U | 0.07
69 | C18A G22A A25U | 0.31
70 | C18A G21U A39U A41U G44A | 0.04
71 | C18A G19U G29A | 1.25
72 | C18A A26U A39U C46A | 0.04

Row | Variant | self-cleavage
73 | G17C G33U U43A | 0.14
74 | G17U U20A G36C C37A U38G G40A | 0.03
75 | G17U C31G U32C U34C U38C | 0.01
76 | G17U A25U G27A U38A | 0.06
77 | G17U G40C A41U U43G | 0.09
78 | G17C U34C G36U C37U | 0.1
79 | G17U C18G A24U A39G | 0.05
80 | G17U G35A U43C G44C | 0.02
81 | C18A A24U A26U U28G G33U | 0.01
82 | G17U U34G A41U | 0.06
83 | G17U G30C G36U U43A | 0
84 | G17C G29U A39G | 0.3
85 | G17U G21C A39C | 0.11
86 | C18A G19A G36U G40A | 0.03
87 | G17U U28G G36A G40C C45U | 0.01
88 | C18A A26G A41G | 0.16
89 | G17C U20A G22U | 2.34
90 | G17C G33A U38C | 0.03
91 | G17C U28G C42A | 0.11
92 | G17U U20G G21C | 0.37
93 | G17U U20A A25C | 0.07
94 | C18A C23U U28A G35C A39C | 0
95 | G17U G19U G22C G29C | 0.08
96 | G17U G21C U34C | 0.04

Row | Variant | self-cleavage
97 | G17U A39C A41C | 0.02
98 | G17U G22A C42A C46G | 0.06
99 | C18A A39G C46G | 0.07
100 | C18A A24U G36C | 0.06
101 | G17U G27C G33C A39C | 0
102 | G17U C31G G40A | 0.04
103 | C18A G21U G30U | 0.42
104 | G17U G30C G44C | 0.1
105 | G17U A24G G36U | 0.01
106 | G17U G22C A24G C46G | 0.21
107 | C18A G19C A24C C31G C45A | 0.03
108 | G17U G27U G40C C42U C46G | 0.07
109 | C18A G22C U32A G35C U38G C45G | 0.01
110 | G17U A26C C31A | 2.55
111 | C18A G21A G29C | 2.21
112 | G17U U20C G30C | 0.92
113 | C18A A26C G44A | 0.07
114 | G17U G19C U20A | 0.39
115 | G17C U34A A41U | 0.03
116 | G17C G22A G27C G35A | 0.12
117 | G17U U20C A24C U34G C45G | 0.01
118 | G17C G19U A25C U34A U38A | 0.01
119 | G17C G29U C31A G33A | 0.14
120 | G17U G22A A41G G44A | 0.04

Row | Variant | self-cleavage
121 | G17C G21A A25C | 0.53
122 | C18A C31A A39C | 0.01
123 | G17C U20A C45A C46U | 0.04
124 | C18A C23A A24U | 0.58
125 | G17U C18A G22A G44A | 0.11
126 | C18A A24U U28G | 0.06
127 | C18A C23G A39U C42G | 0.02
128 | G17U A24C G29U C37A | 0.03
129 | C18A G19A G35U C42G | 0.02
130 | G17C G27U C31U C42U U43G | 0.01
131 | G17U G19A G29U U43A | 0.02
132 | C18A C23U U32C | 0.05
133 | G17C G22C A41U C42U G44A | 0.02
134 | G17C U20G A24U C45A | 0.06
135 | C18A G22A C37U G44C | 0
136 | G17C U28C G44C | 0.07
137 | G17U C23G G27C G29A | 2.61
138 | G17C U34A C42A G44A | 0.02
139 | G17U G22A U34C A41U | 0.11
140 | G17U G29A C31A | 0.6
141 | C18A G22C U32A G33U G40A | 0.02
142 | G17U C31A G35C C46A | 0.09
143 | C18A A26C U34G C37A A41G C42A | 0.01
144 | C18A A24U G29C A39G | 0.04

Row | Variant | self-cleavage
145 | C18A G21U C45U | 0.38
146 | G17U C23A A41G | 0.09
147 | G17U G27U A39U | 0.39
148 | G17C G21C G35U | 0.03
149 | C18A C23A C46G | 0.26
150 | G17U G19A G22A C23G | 0.26
151 | G17U G22U C23A U34A | 0.04
152 | G17U A24C G40U | 0.08
153 | C18A G19U A24C G30C U34C U38C | 0.1
154 | G17C G22C C31G | 0.41
155 | C18A G22C A26C U32G G40A | 0.01
156 | G17U C31U U34G | 0.01
157 | G17U C18U C23A A24G G40A | 0.04
158 | G17U G22A A24U | 0.06
159 | G17C G21U G27U A41G | 0.17
160 | G17U A24C G29A | 0.45
161 | G17U G22U A25G | 0.06
162 | G17U A24C U28A G35C | 0.01
163 | G17C G29C C31U G35A | 0.06
164 | G17U U34C C37A G40U U43A | 0.19
165 | G17U C23A U34C | 0.04
166 | C18A G22A G35C | 0.06
167 | G17C G35C G36U U38A | 0.03
